Assay results taken from PubChem BioAssay (NCI).
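Compound exposure: 48 hours, 5 concentrations, 96-well plates. GI50 = concentration required for 50% inhibition of growth. TGI denotes the concentration required for complete inhibition of growth.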

Tested on: NCI-H322M lung
Assay: DTP human tumour cell line panel, 48 h

| Compound | GI50 [µM] | TGI [µM] |
| --- | --- | --- |
| C/C(=C\CC/C=C(\C)CC/C=C(\C)CC[C@@H](O)C(C)(C)O)CC/C=C(\C)CC[C@@H](O)C(C)(C)O | 15.7 | 29.2 |
| CCN1CCN(c2ccc(NC(=O)Nc3ccc(-c4cc(C(=O)NC)c5ncccc5n4)cc3)cc2C(F)(F)F)CC1 | 2.8 | 5.2 |
| NS(=O)(=O)c1ccc(N2N=C(c3ccc(NC(=O)Nc4ccccc4)cc3)CC2c2ccc(Br)cc2)cc1 (configuration not stated) | 3.51 | 13.5 |
| CC[C@]12C=CCN3CC[C@@]4(c5ccc(OC)cc5N(C)[C@H]4[C@@](O)(C(=O)OC)[C@@H]1OC(=O)CCC[P+](c1ccc(F)cc1)(c1ccc(F)cc1)c1ccc(F)cc1)[C@@H]32 | > 48.5 | > 48.5 |
| CN(C)c1nc(NCCNS(=O)(=O)c2ccc(C(=O)/C=C/c3ccc(Cl)cc3)cc2)nc(N2CCOCC2)n1 | 14.4 | 27.5 |
| C=C1CCC2C3(C)COC(c4ccco4)OC3CCC2(C)C1CC(Sc1ccccc1)C1=CCOC1=O (configuration not stated) | 42.7 | > 100 |
